# Measured values: PMC4336329 (PLoS ONE, 2015)
# Among all 310,000 compounds or so, about 14,000 (4.5%) showed an effect of 50% or more. Effects have a minus sign here. The list shows a part of the results.
# Target: human ether-à-go-go-related gene (hERG) potassium channel (human, UniProt Q12809)
# Test: primary screen, population patch clamp on CHO cells stably expressing hERG
# 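Further: peak tail current of the secondary pulse compared with the same well before compound.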
# Chain of human ether-à-go-go-related gene (hERG) potassium channel (Q12809 whole entry, looked up): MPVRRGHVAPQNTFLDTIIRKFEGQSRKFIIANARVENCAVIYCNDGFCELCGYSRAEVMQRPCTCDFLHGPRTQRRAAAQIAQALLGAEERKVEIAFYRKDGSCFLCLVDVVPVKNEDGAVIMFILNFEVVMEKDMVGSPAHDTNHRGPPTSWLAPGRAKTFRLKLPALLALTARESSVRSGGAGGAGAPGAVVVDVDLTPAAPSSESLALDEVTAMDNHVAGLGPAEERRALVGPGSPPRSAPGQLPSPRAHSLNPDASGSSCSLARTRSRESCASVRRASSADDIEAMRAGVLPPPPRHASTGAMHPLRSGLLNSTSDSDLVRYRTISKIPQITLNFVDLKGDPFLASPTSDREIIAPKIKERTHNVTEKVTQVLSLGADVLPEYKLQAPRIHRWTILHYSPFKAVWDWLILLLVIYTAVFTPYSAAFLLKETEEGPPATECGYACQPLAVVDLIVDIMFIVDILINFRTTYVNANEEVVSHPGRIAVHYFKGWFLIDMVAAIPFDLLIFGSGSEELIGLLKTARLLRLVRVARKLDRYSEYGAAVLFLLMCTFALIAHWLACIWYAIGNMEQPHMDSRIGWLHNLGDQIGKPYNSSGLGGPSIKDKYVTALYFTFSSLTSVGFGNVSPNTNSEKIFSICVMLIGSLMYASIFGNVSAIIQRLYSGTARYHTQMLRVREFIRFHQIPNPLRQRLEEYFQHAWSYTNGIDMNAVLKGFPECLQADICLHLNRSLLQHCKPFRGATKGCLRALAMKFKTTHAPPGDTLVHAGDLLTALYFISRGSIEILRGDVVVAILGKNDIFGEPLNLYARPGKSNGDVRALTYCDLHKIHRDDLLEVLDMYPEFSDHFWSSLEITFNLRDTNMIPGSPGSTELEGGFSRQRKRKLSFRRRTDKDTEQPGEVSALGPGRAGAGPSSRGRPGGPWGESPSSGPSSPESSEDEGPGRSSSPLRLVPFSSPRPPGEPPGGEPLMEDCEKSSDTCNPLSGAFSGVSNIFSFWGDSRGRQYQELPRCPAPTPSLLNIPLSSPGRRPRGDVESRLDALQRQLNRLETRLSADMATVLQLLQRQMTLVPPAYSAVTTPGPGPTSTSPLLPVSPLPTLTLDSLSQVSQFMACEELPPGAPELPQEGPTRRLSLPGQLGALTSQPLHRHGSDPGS
row,SMILES,"hERG current change (%, negative = inhibition) at 10uM [%]"
1,COC(=O)CCC(=O)Nc1ccccc1C(N)=O,23.1
2,O=C(CSc1nccc(=O)[nH]1)NCc1ccc2c(c1)OCO2,27.3
3,CC1CCC(NC(=O)C2CC(=O)N(c3ccc4c(c3)OCCO4)C2)CC1 (centres unmarked),8.92
4,COC(=O)c1cc(-c2ccc(S(=O)(=O)N3CCCCC3)cc2)c(C(F)(F)F)s1,-8.2
5,O=C(Nc1nc2ccsc2c(=O)s1)c1ccc(F)cc1Cl,8.09
6,CCOC(=O)C1=C(c2ccc(OC)cc2)OC(N)=C(C#N)C1c1cccnc1 (centres unmarked),1.19
7,Nc1ccc(S(N)(=O)=O)cc1N.O=S(=O)(O)O,22.3
8,CC(C)COc1ccc(C(=O)OC2CC(C)(C)OCC2CN(C)C)cc1.Cl (centres unmarked),-38.1
9,CCOC(=O)c1ccc(NC(=O)CN2C(=O)CNC2=O)cc1,17.4
10,O=c1ccc(-c2ccc(S(=O)(=O)Nc3ccc(F)cc3)s2)n[nH]1,-14.8
11,COc1ccc(OC2CCN(S(=O)(=O)c3ccc(F)cc3)CC2)cc1,6.65
12,NC1=Nc2cccc3cccc1c23,21.3
13,O=C(CN1C(=O)NC2(CCSC2)C1=O)N1CCN(c2ccc(F)cc2)CC1 (centres unmarked),-24.6
14,Cc1cccc(-c2cccc(NC(=O)C3CCCN(C(=O)c4csc(C)n4)C3)c2)c1 (centres unmarked),-30.6
15,CC(C)(C)NC(=O)C1CCC(CNS(=O)(=O)c2cccc3nsnc23)CC1 (centres unmarked),-8.07
16,COc1ccc(-n2c(COc3ccccc3)nnc2SCC(N)=O)cc1,0.9
17,c1ccc(-c2cncnc2)nc1,3.74
18,CCOC(=O)n1c(=O)[nH]c2ccc(Br)cc21,2.18
19,O=C(/C=C/c1ccc(Cl)cc1)NC(=S)Nc1ccccc1C(=O)O,13.3
20,Cc1nc(CSc2nnc(C)s2)cs1,-12.9
21,O=C(NCCOc1ccccc1)C1CCCCC1,20
22,COc1cc(OC)cc(C(=O)Nc2ccccc2-c2nnn(CC(N)=O)n2)c1,2.92
23,CCOC(=O)c1ccc(N=CC2=C(O)CC(C)(C)CC2=O)cc1,-1.3

row,SMILES,"hERG current change (%, negative = inhibition) at 10uM [%]"
1,CN(C(=S)NC(=O)c1ccccc1Br)C1CCCCC1,-13.5
2,Oc1c(N=Nc2ccccc2)sc2ccccc12,-1.59
3,COC(=O)c1ccsc1NC(=O)C1COc2ccccc2O1 (centres unmarked),3.5
4,CC1(C)CC(=O)C(C(=S)Nc2ccccc2)=C(NCCN2CCOCC2)C1,-36.9
5,COc1ccc(C(C(=O)NC(C)(C)C)N(CCC(C)C)C(=O)CCC(=O)Nc2cc(C)on2)cc1 (centres unmarked),6.67
6,CCOC(=O)c1c(OCCO)nn(-c2ccc(Cl)cc2)c1N,-51.8
7,Cl.NC1=NC2(CCCCC2)N(c2ccc(F)cc2F)C(N)=N1,14
8,CN(CC(=O)NC1CCCCC1)S(=O)(=O)c1ccc(Cl)cc1,-0.709
9,COc1ccc(CSc2nc(CSC)cc(N3CCOCC3)n2)cc1,-7.91
10,O=C(Nc1ccc2c(c1)OCCO2)C1CCN(S(=O)(=O)c2cccc3nsnc23)CC1,11.1
11,COc1ccc(C(=O)NCCn2ccc3ccccc32)cc1,-15.3
12,Cc1ccoc1C(=O)N1CCCC(CO)(Cc2ccc(F)cc2)C1 (centres unmarked),-8.01
13,CC(=O)/C=C1\SC(CC(=O)O)C(=O)N1c1ccccc1 (centres unmarked),13.9
14,O=C(NC1CCCC1)C1c2ccccc2C(=O)N1CCCN1CCOCC1 (centres unmarked),-5.42
15,Nc1ccc(Sc2nc3ccccc3[nH]2)cc1,-0.417
16,FC(F)(F)c1cc(-c2ccc(Cl)cc2)nc2ncnn12,-16.2
17,CCc1cc2c(=O)n(-c3ccc(C)cc3)cnc2s1,-8.64
18,Nn1c(SCc2nc3ccccc3[nH]2)nnc1C1CCCCC1,-4.65
19,CC(=O)c1ccc(N(C(=O)c2ccco2)C(C(=O)NC2CCCC2)c2cccs2)cc1 (centres unmarked),-40.4
20,CCOC(=O)C1=C(C)OC(N)=C(C#N)C1C1CCCCC1 (centres unmarked),4.26
21,CCOC(=O)c1c(-c2ccncc2)csc1N,3.63
22,Cc1ccc(C23CC4CC(CC(C(N)=O)(C4)C2)C3)cc1,8.28
23,COC(=O)c1ccc(CS(=O)(=O)c2ccccc2C)o1,1.93

row,SMILES,"hERG current change (%, negative = inhibition) at 10uM [%]"
1,Cc1noc(C)c1COc1cccc(C(=O)Nc2ccccc2)c1,-7.11
2,CCOC(=O)c1c(C)[nH]c(C)c1C(=O)COC(=O)c1cc(OC)cc(OC)c1,-36.3
3,Cc1cc(C)n(-c2nnc(C)c(=O)[nH]2)n1,-7.49
4,Cc1cccc(NCc2ccc(O)c3ncccc23)c1C,15
5,CC(C)=C(NC(=O)c1ccccc1)C(=O)NC(Cc1ccccc1)C(=O)O (centres unmarked),15.9
6,COc1ccc(OC2C(=O)N(c3ccc(C)c(C)c3)C2c2ccc(OC)c(OC)c2)cc1 (centres unmarked),-28.1
7,O=C(COC(=O)C1CC2CCCC(C1)C2=O)c1cccc(Br)c1 (centres unmarked),-31.7
8,COc1ccc(OC)c(NC(=O)c2cc(-c3cc(C)ccc3O)n[nH]2)c1,19
9,COC(=O)c1cccc(NS(=O)(=O)c2cccs2)c1C,2.1
10,CCOC(=O)c1ccc(N2C=C(C(=O)OC)C(c3cccc(O)c3)C(C(=O)OC)=C2)cc1,11
11,COC(=O)Cn1c(O)c(N=NC(=O)CNC(=O)c2ccncc2)c2ccccc21,9.25
12,CCOc1ccccc1-n1c(CN2CCN(C(=O)c3ccco3)CC2)nc2ccccc2c1=O,-26.2
13,CC(NC(=O)C(C)(C)C)C(c1cccs1)N1CCN(Cc2ccccc2)CC1 (centres unmarked),-14.3
14,Fc1ccccc1-c1csc(=Nc2cccnc2)n1CCCn1ccnc1,-60.1
15,COC(=O)c1c(NC(=O)c2ccc(C)cc2)sc(Cc2ccccc2)c1C,16.7
16,O=C(O)C1CC(c2ccccc2)=NO1 (centres unmarked),3.78
17,CCCCn1c2c(c(=O)n(C)c1=O)C(CC(=O)OCC(=O)Nc1cccc(C(F)(F)F)c1)C(=O)N2 (centres unmarked),-5.56
18,O=C(Nc1ccc(Cl)c([N+](=O)[O-])c1)c1ccncc1,-22.6
19,COc1ccc(-c2nc(CSCC(=O)N3CCc4ccccc4C3)c(C)o2)cc1OC,-11.9
20,CCc1nc2ccccc2c(C(=O)OCC(=O)C(C)(C)C)c1C,-15
21,CCOC(=O)C1CCN(C=C2C(=O)N(C)C(=S)N(C)C2=O)CC1,-7.03
22,COc1cccc(CNC(=O)CCn2ccc3cc(S(=O)(=O)N4CCCC4)ccc32)c1,-7.87
23,COc1ccccc1N1CCN(C2CC(=O)N(C)C2=O)CC1 (centres unmarked),14.6

row,SMILES,"hERG current change (%, negative = inhibition) at 10uM [%]"
1,NS(=O)(=O)c1ccc(CCNC(=O)c2ccc(CS(=O)(=O)c3ccc(Br)cc3)o2)cc1,27
2,COc1ccc(COC(=O)N/N=C(\C)CC(=O)Nc2c(C)cc(C)cc2C)cc1,5.92
3,CCC(C(=O)OC)n1cnc2c(cnn2-c2ccc(Cl)cc2)c1=O (centres unmarked),2.26
4,CCOC(=O)c1cc2c(s1)-c1ccccc1CC2,11.3
5,COc1ccccc1NC(=S)N(Cc1cccs1)C1CCCC1,-10.2
6,Cc1ccc(N(CC(=O)NCc2ccc(F)cc2)C(=O)c2csnn2)cc1C,-2.25
7,N#Cc1cn(CCOc2ccc(F)cc2)c2ccccc12,1.56
8,O=C(Cn1c(-c2cscn2)nc2ccccc21)Nc1ccc2ccccc2c1,0.712
9,Cc1ccc(/C=C/C(=O)OCC(=O)Nc2ccc3[nH]c(=O)[nH]c3c2)o1,2.52
10,COc1ccc(-c2nc(CS(=O)CC(=O)NCCN3CCCCCC3)c(C)o2)cc1OC (centres unmarked),-0.18
11,COc1ccc(CNC(=O)Cn2cc(C(F)(F)F)ccc2=O)cc1OC,20.3
12,Cc1c(C(=O)Nc2nnc(C3CC3)s2)oc2ccccc12,3.16
13,Cc1cc(N2CCOCC2)nc2cc(O)ccc12,0.19
14,COc1ccccc1CNC(=O)CSc1nn2c(=O)c(C(C)(C)C)nnc2s1,13.3
15,CCc1nccn1C(=O)c1cnn2c(C(F)F)cc(-c3ccc(C)cc3)nc12,-14.5
16,CCCCC(O)(C(NC=O)C(=O)OC)C(F)(F)F (centres unmarked),10.3
17,COC(=O)C(O)(CC(=O)Nc1ccccc1OC)C(F)(F)F (centres unmarked),4.02
18,O=C(CN1CCC(NC(=O)c2ccc(F)cc2)CC1)NCc1ccccc1F,-22.5
19,COc1ccc(-c2c(-c3cc(OC)cc(OC)c3)n(C)c3ccc(-c4cc(F)cc(OC)c4)cc23)cc1,16.5
20,CCC(=O)N1CCN=C1SCc1cccc(F)c1,2.06
21,O=C(COc1cccc(Cl)c1)Nc1cc(S(=O)(=O)N2CCOCC2)ccc1N1CCOCC1,-24.6
22,N#CCN(C(=O)COC(=O)C1CC2CCCC(C1)C2=O)c1ccccc1 (centres unmarked),14.7
23,COc1cccc(C2C(C(=O)c3sc(C)nc3C)=C(O)C(=O)N2CCN2CCOCC2)c1OC (centres unmarked),10.7
